Each structure is given as a SMILES string. In all, about 1,300 compounds went through this assay and about 25 (2%) were called active. Not shown: some 9% with an inconclusive outcome. The call rests on the fitted dose curve; in most records, active means well fitted activation curve with a large enough effect; inconclusive means small, poorly fitted or top-dose-only effect; inactive means flat fitted curve, though single readings scatter. Some of the results follow.
Potency means the concentration at half of the fitted maximal effect.

In this test the target is Glucagon-like peptide 1 receptor (Homo sapiens) (UniProt P43220). As to the kind of experiment: qHTS of GLP-1 Receptor Agonists: Hit Validation. On activation: % of control where 0% means no effect. The conditions noted are these: HEK293 GLP-1R, cAMP-response luciferase, 4-6 h; series mostly up to 46.1 µM; activation: at the top concentration. An excerpt: The overall goal of this project was to develop a novel assay for discovering small molecule ligands for class B1 G protein-coupled receptors (GPCRs). Very few agonists (or inverse agonists) with generally weak activity for this entire group of physiologically important receptors are known to date. To establish proof-of-principle that this critical bottleneck can be overcome with a suitable screening approach, our studies focused on the class B1 receptor for glucagon-like peptide-1 (GLP-1R), a potential therapeutic target for diabetes and neurodegenerative disease. The assay was developed in a "mix and measure" format using a cell-based functional readout. Toward this goal, stably transfected HEK293 cell clones were established that co-express (i) a cAMP-responsive luciferase reporter gene, and (ii) GLP-1Rs that upon ligand interaction either stimulate (agonists) or inhibit (inverse agonists) luciferase activity. In different cell lines to be used for screening, expressed GLP-1Rs are specifically optimized for high sensitivity detection of either weak agonists (hypersensitive receptor) or inverse agonists (constitutively active receptor mutant). In addition, control cell lines were developed that express either the cAMP-responsive reporter gene without recombinant GLP-1Rs (enabling initial exclusion of GLP-1R independent effects of candidate probes), or the reporter gene together with wild type GLP-1Rs (for confirmation of probe activity at this receptor), or the reporter gene in combination with the constitutively active orphan receptor GPR119 (enabling initial exclusion of GLP-1R independent inhibitory effects of candidate inverse agonists). To that end, this assay was optimized for 1536-well format and screened against the MLSMR. NIH Molecular Libraries Probe Production Network [MLPCN] NIH Chemical Genomics Center [NCGC] Grant: NS064851 PI Name: Martin Beinborn, Tufts Medical Center
Sequence of UniProt P43220 (P43220 whole entry, looked up): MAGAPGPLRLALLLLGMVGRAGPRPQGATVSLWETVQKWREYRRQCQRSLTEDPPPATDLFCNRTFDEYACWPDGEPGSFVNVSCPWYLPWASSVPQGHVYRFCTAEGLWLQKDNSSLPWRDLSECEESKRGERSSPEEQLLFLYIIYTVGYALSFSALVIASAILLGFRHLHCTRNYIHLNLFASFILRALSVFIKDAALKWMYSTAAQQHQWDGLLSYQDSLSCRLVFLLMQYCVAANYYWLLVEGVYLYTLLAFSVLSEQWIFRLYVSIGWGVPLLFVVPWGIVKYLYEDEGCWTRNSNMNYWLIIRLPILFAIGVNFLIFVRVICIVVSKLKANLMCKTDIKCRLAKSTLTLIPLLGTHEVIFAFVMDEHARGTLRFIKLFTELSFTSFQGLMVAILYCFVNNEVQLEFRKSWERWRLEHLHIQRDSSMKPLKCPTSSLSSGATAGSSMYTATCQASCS
In a white solid 1536-well plate, 6 uL of cells are dispensed in DMEM without phenol red, 10% Nu serum, and 1% pen-strep medium. The plates are then incubated for 12 hours at 37 deg C at 5% CO2 before 23 nL of compounds are added. After a 4-6 hr incubation at37 deg C and 5% CO2, 3 uL of detection reagent are added and after a 12 min incubation at RT, a luminescent read is obtained on the ViewLux.
(qHTS replaces the single test concentration by a dilution series.)
For `CN(C)CCO`, the “activation” value is inactive: -0.671%.

For `O=c1[nH]cnc2nc(-c3ccc(N(CCCl)CCCl)cc3)[nH]c12`, the “activation” value was inactive: 17.1%.

For the compound `COc1ccc(-n2c(-c3ccc(C)cc3)nc3ccccc3c2=O)cc1`, the “activation” value was inactive: 5.56%.

On to `c1ccc2nc(N3CCNCC3)ccc2c1`, for which the “activation” value was inactive: 2.45%.

For `CCC1C(C)=NN=C(c2ccc(OC)c(OC)c2)c2cc(OC)c(OC)cc21` (configuration not stated), the “activation” value is inactive: 28.4%.

For `C[C@]12CCC(=O)C[C@@H]1CC[C@@H]1[C@@H]2CC[C@]2(C)[C@@H](O)CC[C@@H]12`, the “activation” value is inactive: 1.4%.

In the case of `O=C(CCCOc1ccc(Cl)cc1Cl)N1CCC2(CC1)OCCO2`, the “activation” value is inactive: 3.79%.

Turning to `CCNc1nc(NC(C)(C)C)nc(SC)n1`, the “activation” value was inactive: 2.02%.

Regarding `C=CCn1c(O)c(C(CC)=NCCc2c[nH]c3ccccc23)c(=O)[nH]c1=O`, the “activation” value is inactive: 10.3%.

Regarding `CN(C)C(=O)Oc1cc(OC(=O)N(C)C)cc(C(O)CNC(C)(C)C)c1` (configuration not stated), the “activation” value is inactive: -0.316% [at 19.8 µM].

Regarding `COc1ccc(C2=NCc3nnc(C)n3-c3ccc(Cl)cc32)cc1Cl`, the “activation” value is inactive: 22.8%.

Turning to `O=[N+]([O-])c1c2ccccc2cc2ccccc12`, the “activation” value was inactive: 1.49%.

On to `C[C@H]1CCC[C@H](O)CCCCCc2cc(O)cc(O)c2C(=O)O1`, for which the “activation” value was inactive: 0.305%.

As for `Cc1nn(-c2ccccc2)c2c1C(c1ccc3c(c1)OCO3)SCC(=O)N2` (configuration not stated), the “activation” value was inactive: -0.435%.

In the case of `COc1ccc(C=O)cc1`, the “activation” value was inactive: -1.31%.

With `COc1ccc(Cc2nccc3cc(OC)c(OC)cc23)cc1OC`, the “activation” value is inactive: 28.3%.

With `CN1CCN=C(c2ccccc2)c2cc(Cl)ccc21`, the “activation” value is inactive: -0.229%.

Turning to `N#Cc1c(/N=C/c2ccc(O)cc2O)sc2c1C1CCN2CC1`, the “activation” value was inactive: 12.4%.

As to `C[C@@H]1CN([C@H](C)CO)C(=O)CCCn2cc(nn2)CO[C@H]1CN(C)C(=O)Oc1ccc2ccccc2c1`, the “activation” value was inactive: -0.911%.

Consider `COc1cccc([C@@]2(O)CCCC[C@@H]2CN(C)C)c1`, for which the “activation” value was inactive: -1.26% [at 92.2 µM].

`CC(Cc1ccc(O)cc1)NCC(O)c1ccc(O)c(O)c1` (configuration not stated): the Potency was active: 9.2 nM.

With `Cc1ccc(CN2CCSc3ccc(C(=O)N4CCC5(CC4)OCCO5)cc32)cc1`, the “activation” value was inactive: -0.309%.

With `CC(NCc1ccc(Cl)cc1)C(O)c1ccccc1` (configuration not stated), the “activation” value was inactive: 20.3%.

`CCC(=NC(C)c1ccccc1)c1c(O)[nH]c(=O)[nH]c1=O` (configuration not stated): the “activation” value was inactive: 15%.

Consider `NP(=O)(Nc1ccccc1)Nc1ccccc1`, for which the “activation” value was inactive: 14.8%.

In the case of `CN1C(=O)CN=C(c2ccccc2)c2cc(Cl)ccc21`, the “activation” value is inactive: 1.37%.

Take `N#Cc1ccccc1Cn1cc(C(=O)c2ccco2)c2ccccc21`: the “activation” value is inactive: 5.2%.

(Values after PubChem BioAssay AID743262 (National Center for Advancing Translational Sciences (NCATS), 2014).)
